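Protocol summary: plate cells (96-well), add compound at 5 concentrations, incubate 48 h, interpolate endpoints linearly. The concentration for 50% growth inhibition is given as GI50. The concentration for full growth arrest is given as TGI.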
Tested on: NCI-H322M lung
Test: growth of human tumour cells (NCI), 48 h

SMILES | TGI [µM] | GI50 [µM]
COc1cccc(C2c3cc4c(cc3OC3COC(=O)C32)OCO4)c1OC (centres undefined) | > 100 | 
c1cc(N2CCN(c3ccc(C4=NCCCN4)cc3)CC2)ccc1C1=NCCCN1 | > 95.6 | > 41.9
COC(=O)C(Cc1c[nH]c2ccccc12)N=C1Nc2ccncc2S(=O)(=O)N1c1cccc(OC(C)C)c1 (centres undefined) | > 100 | 
Cc1cc(=O)c2c(O)cc3c(c2o1)CC=C(COC1OC(COC2OC(CO)C(O)C(O)C2O)C(O)C(O)C1O)CO3 (centres undefined) | > 100 | 
CC1C=CC(OC(=O)C(C)(O)CCC(O)(C(=O)OC2CC(O)C(C(C)C)CC2(C)O)C(C)C)(C(C)C)CC1 (centres undefined) | 2.28 | 0.848
C=C1[C@@H](O)O[C@H]2[C@H]1C[C@H](OC(C)=O)[C@]13C(=O)O[C@H]4C[C@](C)(O)[C@H]([C@H]41)C31C=C(C)[C@]2(O)O1 | > 100 | > 100
COc1ccc(C2=NOC(N)(c3ccc(OC)cc3)C2)cc1 (centres undefined) | > 100 | 
CN1CCN(P2(=S)Oc3ccc4ccccc4c3-c3c(ccc4ccccc34)O2)CC1 | > 100 | 
C[C@@H]1Cc2cc(O)ccc2[C@H]2CC[C@]3(C)/C(=C/COCCN(C)C)CC[C@H]3[C@H]12 (tested in a mixture with another compound) | 0.937 | 0.322
COc1cccc(/N=N/C(=NNC(=O)c2ccc(C)cc2)c2ccc(N(C)C)cc2)c1 | > 100 | 
Nc1ncnc2c1ncn2[C@@H]1O[C@H](COC(c2ccccc2)(c2ccccc2)c2ccccc2)[C@@H](OC(=S)Oc2ccccc2)[C@@H]1F | 33.5 | 
O=[N+]([O-])c1ccc(C(O)(C#CCN2CCCC2)c2ccccc2)cc1 (centres undefined) | > 100 | 
COc1cc(C(=O)Nc2cc(O)c(CC=C(C)C)c(O)c2)cc2c1O[C@]1(C)CC[C@@H](O)C(C)(C)[C@H]1C2 | 38.6 | 5.61
C=CCC1(C)CCCN(Cc2ccccc2)C1=O (centres undefined) | > 10 | 
Cc1[nH]nc(-c2ccon2)c1N=O | > 100 | 
O=C(c1ccccc1)c1c(CC(O)c2ccncc2)n(C(=O)c2ccccc2)c2ccccc12 (centres undefined) | > 100 | 
COc1ccc2c(c1)C(=O)c1c-2c(OCCN(C)C)nc2ccccc12 | 9.86 | 2.46
COC(=O)c1cc(-c2ccc(OC)c(OC)c2)[nH]c1N/N=C/c1c(Cl)cccc1Cl | > 75.2 | 3.09
Cc1cccc(NC(=O)/C(=N\N)C(c2cnc3ccc([N+](=O)[O-])cc3n2)[N+](=O)[O-])c1C (centres undefined) | > 100 | 
O=C(O)c1ccccc1N=Nc1c(O)c(S(=O)(=O)O)cc2cc(S(=O)(=O)O)ccc12 | > 100 | 
CC1=C(C(=O)Nc2ccc(Cl)c(Cl)c2)C(c2ccc([N+](=O)[O-])cc2)C(C(=O)Nc2ccc(Cl)c(Cl)c2)=C(C)N1 | > 100 | 
Nc1ccc(Nc2cc(=O)[nH]c(=O)[nH]2)cc1Cl | > 100 | 
c1ccc(N=C2c3ccsc3C(=Nc3ccccc3)c3ccsc32)cc1 | 6.22 | 
O=C(CN1N=C(c2ccc(F)cc2)CCC1=O)Nc1nc2ccccc2s1 | > 100 | > 100

SMILES | TGI [µM] | GI50 [µM]
O=C1NC2CCCCCC2C12CCCCC2 (centres undefined) | > 100 | 
CCN1C(=O)N(CC)C2C1NN=c1s/c(=C\c3ccc(F)cc3)c(=O)n12 (centres undefined) | > 100 | 0.813
COC(=O)C(C(=O)C(=O)Nc1ccc([N+](=O)[O-])cc1)c1nc2ccc([N+](=O)[O-])cc2[nH]c1=O (centres undefined) | > 100 | 
CCCc1[nH]c2ccccc2c1-c1c(CCC)[nH]c2ccccc12 | 27.9 | 
CCCC(S(=O)(=O)c1ccccc1)S(=O)(=O)c1ccccc1 | > 100 | 
C1CSCCSCCCSCCSCCCSCCSCCCSCCSC1 | > 100 | 
O=C1C(OCCOc2ccccc2)=C(OCCOc2ccccc2)C(=O)c2ccccc21 | > 100 | 21.1
O=C(Nc1ccccc1OC(=O)c1ccccc1)c1ccccc1 | > 100 | 22.4
CC(=O)OCC1OC(OCCCOP(=S)(OCCC#N)OCC2OC(n3ccc(N)nc3=O)C(OC(=O)c3ccccc3)C2OC(=O)c2ccccc2)C(OC(C)=O)C(OC(C)=O)C1OC(C)=O (centres undefined) | > 100 | 
Nc1nc(N)c(CCCCc2ccccc2)c(N)n1 | > 100 | 
C=CCOc1ccc(C2C(C(=O)OC)C(=O)CC(O)(c3ccccc3)C2C(=O)OC)cc1OC (centres undefined) | 88.8 | 
CC1=NN(c2ccccc2)C(=O)/C1=C\c1ccc([N+](=O)[O-])cc1 | 73.3 | 
CC(C)(C)c1cc2nc(c1)C(C(F)(F)F)(C(F)(F)F)OB(Br)OC2(C(F)(F)F)C(F)(F)F | 4.75 | 
O=C1c2ccccc2N2OC3(N4CCCC4)CCCCC3C12c1ccccc1 (centres undefined) | > 100 | 
COc1ccc(C(=O)/C=C/c2ccc(OCC#N)cc2)cc1 | > 100 | 
CCC(=O)Nc1ccc(N2C(=O)/C(=C/c3ccc(OC)cc3)N=C2c2ccccc2)cc1 | > 50 | 14.7
CN(CCCNC(=O)c1cc(-c2ccccc2)nc2ccccc12)CCCNC(=O)c1cc(-c2ccccc2)nc2ccccc12 | 18.8 | 
COc1ccc(OC(=O)CC2Cc3cc(OC)c(OC)c(OC)c3-c3ccc(SC)c(=O)cc32)cc1 (centres undefined) | > 100 | 
O=C1c2c(Br)sc(Br)c2[C@@H](NC(=O)C(F)(F)F)C1Br (some centres undefined) | 15.3 | 
CCCCNc1nc(NC2OCC(OC(C)=O)C(OC(C)=O)C2OC(C)=O)c(N=O)c(=O)n1C (centres undefined) | > 10 | 
N#CC1(C#N)C(c2ccccc2)C=CC12OCCCO2 (centres undefined) | > 100 | 
COC(=O)Cc1c(-c2c(CC(=O)OC)c3ccccc3n2C2OC(COC(C)=O)C(OC(C)=O)C(OC(C)=O)C2OC(C)=O)[nH]c2ccccc12 (centres undefined) | > 100 | 
CO/N=C1/c2sccc2[C@H](NC(=O)C(Cc2ccccc2)NC(=O)OC(C)(C)C)[C@@H]1O (some centres undefined) | > 100 | 
CCOC(=O)C1CCCCN1C(=O)Cc1c[nH]c2ccccc12 (centres undefined) | > 100 | 

SMILES | TGI [µM] | GI50 [µM]
N/C(=N\OC(=O)c1ccccc1)C(Cc1ccccc1)C(=O)NOC(=O)c1ccccc1 (centres undefined) | 88.5 | 13.1
CN=C1OC2(c3ccccc3)C3=C(OC(=NC)N2C)C(=O)OC3(c2ccccc2)N1C (centres undefined) | > 100 | 
CN1CCc2nc3sc(C(N)=O)c(N)c3c(-c3cccs3)c2C1 | 88.5 | 3.85
N#CCN1C(=O)c2cc([N+](=O)[O-])cc3cc([N+](=O)[O-])cc(c23)C1=O | > 93.3 | 
C[n+]1c2ccccc2nc2c(N)cc(N)cc21 | 61.7 | 3.89
CN(C)CCc1c2c(nc3ccccc13)C(=O)c1cccnc1C2=O | 2.55 | 
C=CCc1cc(Nc2c3ccc(Cl)cc3nc3ccc(OC)cc23)cc(CN(CC)CC)c1O | 15.1 | 3.54
CCC1C(c2ccccc2O)c2cc3c(cc2OC1N1CCOCC1)OCO3 (centres undefined) | 29.7 | 
CCN(CCN(CC)C(=O)Nc1ccccc1)C(=O)Nc1ccccc1 | > 100 | 
COc1ccc(CNc2cc(=O)n(C)c(=O)[nH]2)cc1 | > 100 | 
COc1cc2ncc3c(nc4sccn43)c2cc1OC | 41 | 13.8
COc1cc(C(=O)c2cc(C)c3[nH]c4ccc(O)cc4c3c2C)cc(OC)c1OC | > 100 | 0.0538
CCc1c(C)nc2sc3c(N)ncnc3c2c1C | > 25 | > 25
CSc1c(C#N)c(N)n(-c2ccc(Cl)cc2)c(=O)c1C#N | > 100 | 
O=C(/C=C/c1ccc(Cl)c(Cl)c1)c1cccc2ccccc12 | 29.8 | 
O=C1OC(=O)c2c1c(-c1ccccc1)nc1ccccc21 | > 100 | 
O=C(O)c1ccccc1NC(=S)c1ccccc1 | > 100 | 
COc1ccc(-c2[nH]c3ccccc3c2CCNS(=O)(=O)c2ccc(C)cc2)cc1 | > 10 | 
COc1cc(/C=C/c2ccc3c(Br)cc(Br)c(O)c3n2)ccc1O | 17.6 | 2.28
CC(CO)(Nc1ccc([N+](=O)[O-])cc1[N+](=O)[O-])C(=O)O (centres undefined) | > 100 | 
Nc1n[nH]c2ccc([C@@H]3Nc4cc5c(cc4[C@H]4C6CCC(C6)[C@@H]34)C(=O)NC5)cc12 (some centres undefined) | > 100 | 0.984
CCc1ccc2c(c1)N(CC(C)CN(C)C)c1ccccc1S2 (centres undefined) | 17.2 | 
NC1=NC(=O)C(CC(=O)Nc2ccc(Cl)cc2Cl)S1 (centres undefined) | > 100 | 
CCOC(=O)c1c[nH]c2ccc3c(c2c1=O)S(=O)(=O)CC3 (tested in a mixture with another compound) | > 100 | 

SMILES | TGI [µM] | GI50 [µM]
Cc1cc2c(cc1C)[n+](=O)c(C(=O)c1ccccc1)c(C(F)(F)F)n2[O-] | 49.7 | 
CC(C)(C)NC(=O)CCC1C(C(=O)NC(C)(C)C)C2(Cl)C(Cl)=C(Cl)C1(Cl)C2(Cl)Cl (centres undefined) | > 100 | 
CCOC(=O)C1Nc2ccccc2[C@H]2OCC[C@@H]12 (some centres undefined) | > 100 | 
CN(C)CCNC(=O)c1cccc2c(NC(CCC(N)=O)C(=O)O)c3ccccc3nc12 (centres undefined) | > 100 | 
Cc1cnc2c(c1C)C(=O)c1ccccc1C2=O | > 100 | 
CN=C(Nc1cccc(C(F)(F)F)c1)SCc1ccc(N=C=S)cc1 | 31.3 | 
c1ccc2c(c1)CCc1c-2n[nH]c1-c1[nH]nc2c1CCc1ccccc1-2 | > 100 | 
FC(F)(F)c1cccc(-c2nn3ncccc3c2-c2ccnc(Nc3ccc4c(c3)OCCO4)n2)c1 | > 25 | > 25
O=C(c1ccco1)N(C(=O)N1CCN(c2ccccc2)CC1)S(=O)(=O)c1ccccc1 | > 100 | 
ClC1=C(Cl)C(Cl)(Cl)c2c3c(c4c(c21)C(Cl)(Cl)C(Cl)=C4Cl)C(Cl)(Cl)C(Cl)=C3Cl | > 100 | 
C=C(C)[C@@H]1CC[C@]2(C(=O)OC)CC[C@]3(C)[C@H](CC[C@@H]4[C@@]5(C)CC[C@H](O)C(C)(C)[C@@H]5CC[C@]43C)[C@@H]12 | 35.2 | 
O=c1[nH]c(Nc2nc3ccccc3[nH]2)nc(O)c1Cc1ccccc1 | > 100 | 
COc1cc(O)c2c(=O)c(OC)c(-c3ccc(OC)c(OC)c3)oc2c1 | > 100 | 
C=C1CC[C@@H](C)[C@](C)(CCc2ccoc2)C/C=C\C=C/1C(=O)O | > 100 | 
CC(C)(C)OC(=O)NCCCCC(N)NC(=O)c1ccccc1 (centres undefined) | > 100 | 
O=C1Cc2c([nH]c3ccc(C(=O)O)cc23)-c2ccccc2N1 | > 100 | 
Cc1ccccc1C(=O)C1CCCCC1O (centres undefined) | > 100 | 
CCN(CC)C1Oc2cc3c(cc2C(c2cccc(OC)c2OC)C1C)OCO3 (centres undefined) | 64.4 | 
c1cc(-c2cn3c(n2)SCC3)ccn1 | > 100 | 
CC(C)(CCC(C)(C)N1OC1c1ccccc1)N1OC1c1ccccc1 (centres undefined) | > 100 | 
Cc1ccc(NC(=O)C(=O)C(C(=O)/C=C/c2ccccc2)C2OC(=O)c3ccccc32)c(C)c1 (centres undefined) | > 100 | 
C/C(=N\O)c1cccc(Nc2cc(-n3ccnc3)c3ccccc3n2)c1 | 40.1 | 18.6
Cc1[nH]c(-c2cc(N)ccc2Cl)c2c1C(=O)CCCC2 | > 100 | 2.95

— PubChem BioAssay (NCI)
